Reference: a compilation of properties of binary mixtures (doi:10.1016/j.fluid.2020.112621)
The densities may have been worked out from excess volumes.

Assay: xn = mol fraction of the nth substance listed
Conditions: 101 kPa

CCCC[n+]1ccn(C)c1.COP(=O)([O-])OC + CC(=O)O.CC(=O)[O-].CC[NH+](CC)CCO
x2 = 0
Conditions | mass density [kg/m3]
278.15 K | 1174.1
288.15 K | 1166.8
293.15 K | 1163.4
303.15 K | 1157
308.15 K | 1153.7
313.15 K | 1150.1
318.15 K | 1147.1
323.15 K | 1143.6
328.15 K | 1140.3
333.15 K | 1137.4
338.15 K | 1134.2
343.15 K | 1130.7
348.15 K | 1127.5
363.15 K | 1118
368.15 K | 1114.8
373.15 K | 1111.7

CCCC[n+]1ccn(C)c1.O=S(=O)([N-]S(=O)(=O)C(F)(F)F)C(F)(F)F + CC(=O)[O-].CCCC[NH2+]CCO
x2 = 0
Conditions | mass density [kg/m3]
283.15 K | 1451.3
298.15 K | 1437
303.15 K | 1432.2
308.15 K | 1427.4
313.15 K | 1422.7
323.15 K | 1413.2
328.15 K | 1408.4
333.15 K | 1403.7
338.15 K | 1399
343.15 K | 1394.3
348.15 K | 1389.6
353.15 K | 1384.9
358.15 K | 1380.3
363.15 K | 1375.6
368.15 K | 1370.9
373.15 K | 1366.3

CCCC[n+]1ccn(C)c1.COP(=O)([O-])OC + CCC(=O)O.CCC(=O)[O-].CC[NH+](CC)CCO
x2 = 0
Conditions | mass density [kg/m3]
278.15 K | 1174.1
288.15 K | 1166.8
293.15 K | 1163.4
298.15 K | 1160.1
303.15 K | 1157
308.15 K | 1153.7
313.15 K | 1150.1
318.15 K | 1147.1
323.15 K | 1143.6
333.15 K | 1137.4
338.15 K | 1134.2
348.15 K | 1127.5
353.15 K | 1124.3
358.15 K | 1121.1
363.15 K | 1118
368.15 K | 1114.8

CCCC[n+]1ccn(C)c1.COP(=O)([O-])OC + CCCC(=O)[O-].CC[NH+](CC)CCO
x2 = 0
Conditions | mass density [kg/m3]
278.15 K | 1174.1
283.15 K | 1170.4
288.15 K | 1166.8
293.15 K | 1163.4
303.15 K | 1157
308.15 K | 1153.7
313.15 K | 1150.1
323.15 K | 1143.6
333.15 K | 1137.4
338.15 K | 1134.2
343.15 K | 1130.7
353.15 K | 1124.3
358.15 K | 1121.1
363.15 K | 1118
368.15 K | 1114.8

CCCC[n+]1ccn(C)c1.COP(=O)([O-])OC + CCCCC(=O)[O-].CC[NH+](CC)CCO
x2 = 0
Conditions | mass density [kg/m3]
278.15 K | 1174.1
283.15 K | 1170.4
288.15 K | 1166.8
293.15 K | 1163.4
298.15 K | 1160.1
308.15 K | 1153.7
313.15 K | 1150.1
318.15 K | 1147.1
333.15 K | 1137.4
338.15 K | 1134.2
343.15 K | 1130.7
353.15 K | 1124.3
363.15 K | 1118

CCCC[n+]1ccn(C)c1.COP(=O)([O-])OC + CCCCCC(=O)O.CCCCCC(=O)[O-].CC[NH+](CC)CCO
x2 = 0
Conditions | mass density [kg/m3]
278.15 K | 1174.1
283.15 K | 1170.4
288.15 K | 1166.8
293.15 K | 1163.4
308.15 K | 1153.7
313.15 K | 1150.1
323.15 K | 1143.6
328.15 K | 1140.3
338.15 K | 1134.2
343.15 K | 1130.7
348.15 K | 1127.5
353.15 K | 1124.3
368.15 K | 1114.8
373.15 K | 1111.7

CCCCCC(=O)O.CCCCCC(=O)[O-].CC[NH+](CC)CCO + CCCC[n+]1ccn(C)c1.COP(=O)([O-])OC
mass density [kg/m3]
Conditions | x1 = 0.0684 | x1 = 0.1429 | x1 = 0.2213 | x1 = 0.3088 | x1 = 0.3966 | x1 = 0.4995 | x1 = 0.6088 | x1 = 0.7258 | x1 = 0.8535 | x1 = 1
278.15 K | 1150.3 | 1126.1 | – | 1082.3 | 1063.3 | 1045.4 | – | 1010.8 | 993.1 | 975
283.15 K | – | 1122.5 | 1100 | 1078.4 | 1059.4 | – | 1024.2 | – | 989.6 | 971.4
288.15 K | 1143.3 | 1118.9 | – | – | 1055.6 | 1037.8 | 1020.4 | 1003.4 | 986 | –
293.15 K | 1139.8 | 1115.2 | 1092.6 | 1070.9 | 1051.8 | – | 1016.7 | 999.7 | – | 964.3
298.15 K | 1136.3 | 1111.6 | – | – | 1048.1 | 1030.3 | 1012.9 | 996.3 | 978.8 | 960.8
303.15 K | 1132.8 | 1108.1 | – | 1063.5 | 1044.3 | 1026.5 | – | 992.6 | 975.1 | –
308.15 K | 1129.4 | – | 1081.8 | 1059.8 | 1040.5 | 1022.7 | 1005.4 | 988.9 | 971.5 | 953.6
313.15 K | – | 1101.2 | 1078.3 | – | 1036.7 | 1018.9 | 1001.6 | 985.2 | 967.8 | 950
318.15 K | 1122.7 | 1097.8 | 1074.7 | 1052.5 | – | 1015.2 | 998.1 | 981.4 | – | 946.4
323.15 K | 1119.4 | 1094.4 | 1071.2 | 1048.9 | – | 1011.4 | 994.3 | 977.7 | 960.6 | 942.7
328.15 K | 1116 | 1090.9 | 1067.7 | 1045.2 | 1025.3 | – | 990.4 | 973.9 | 956.9 | –
333.15 K | 1112.7 | 1087.5 | 1064.1 | 1041.5 | 1021.5 | 1003.8 | 986.6 | 970.1 | 953.2 | 935.4
338.15 K | – | 1084.1 | – | 1037.9 | 1017.7 | 1000 | 982.8 | 966.4 | 949.4 | –
343.15 K | – | 1080.7 | – | – | 1013.9 | 996.5 | 978.9 | 962.6 | 945.7 | 928
348.15 K | 1102.7 | 1077.3 | 1053.6 | 1030.7 | 1010.2 | 992.6 | 975.1 | 958.7 | 941.9 | –
353.15 K | 1099.3 | 1073.9 | – | 1027 | 1006.4 | – | 971.2 | – | 938.1 | –
358.15 K | 1096 | 1070.5 | – | 1023.4 | 1002.7 | 985 | 967.3 | 951.1 | 934.3 | –
363.15 K | 1092.7 | 1067.1 | 1043.1 | 1019.8 | 999.1 | 981.2 | 963.5 | 947.2 | 930.4 | 912.8
368.15 K | 1089.3 | 1063.7 | 1039.6 | 1016.2 | – | 977.4 | 959.6 | 943.3 | 926.5 | 908.9
373.15 K | 1086 | 1060.4 | – | 1012.6 | 993.1 | 973.6 | 955.7 | 939.4 | 922.6 | 904.9
